From paper PMC6919601, “Identification of Plasmodium dipeptidyl aminopeptidase allosteric inhibitors by high throughput screening” (PLoS ONE, 2019)
In all, about 110,000 compounds went through this assay and about 230 (0.21%) showed an effect of 50% or more. The list shows a part of the results.

Each compound was assayed against DPAP1 (Plasmodium falciparum, UniProt Q8IIJ9) (assay: primary screen, percent inhibition; read by cleavage of a fluorogenic dipeptide substrate; higher = more effect of the substance).
Sequence of DPAP1 (Q8IIJ9 whole entry, looked up): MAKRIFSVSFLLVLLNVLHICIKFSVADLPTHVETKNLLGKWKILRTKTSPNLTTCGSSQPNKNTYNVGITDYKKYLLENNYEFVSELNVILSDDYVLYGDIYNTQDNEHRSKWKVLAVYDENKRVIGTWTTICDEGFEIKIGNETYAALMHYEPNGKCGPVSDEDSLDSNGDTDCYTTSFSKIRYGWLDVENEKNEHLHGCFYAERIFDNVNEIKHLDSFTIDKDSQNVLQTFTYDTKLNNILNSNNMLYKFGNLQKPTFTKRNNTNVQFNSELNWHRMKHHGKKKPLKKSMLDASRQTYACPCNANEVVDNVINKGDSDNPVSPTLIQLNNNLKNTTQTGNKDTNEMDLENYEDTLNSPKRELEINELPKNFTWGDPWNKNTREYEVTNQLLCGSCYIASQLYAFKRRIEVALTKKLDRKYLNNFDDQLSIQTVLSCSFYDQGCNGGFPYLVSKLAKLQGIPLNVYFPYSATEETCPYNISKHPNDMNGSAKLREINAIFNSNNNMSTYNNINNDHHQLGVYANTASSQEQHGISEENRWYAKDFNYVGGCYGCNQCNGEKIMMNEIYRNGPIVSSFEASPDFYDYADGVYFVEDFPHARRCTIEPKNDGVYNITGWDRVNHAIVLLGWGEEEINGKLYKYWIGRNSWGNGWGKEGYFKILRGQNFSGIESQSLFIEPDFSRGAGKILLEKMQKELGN
Design: species or system P. falciparum D10 trophozoite lysates; single well
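Also: 30 min substrate incubation versus DMSO and 10 µM JCP410 controls.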

Compound	% Inhibition @ 10 uM [%]
COc1cc(C(=O)NCc2cccnc2)ccc1OCc1ccc(Cl)cc1	-1.57
Cc1c(C(=O)O)oc2c1C(=O)CCC2	3.24
CC(C(=O)NCCC1=CCCCC1)n1ncn2cccc2c1=O (centres unmarked)	-8.23
CC(C)OCCCNC(=O)Cn1nc(-c2ccc(Cl)cc2)ccc1=O	-1.79
Cc1ccc(Cc2cnc(NC(=O)/C(C#N)=C/c3ccccc3)s2)cc1	-5.92
CCCN1CCC(NCCc2cccc(F)c2)CC1	1.88
Cc1ccc(CNC(=O)C2CCN(S(=O)(=O)N3CCOCC3)CC2)cc1	0.387
COc1ccc(OCC(O)Cn2c(N)nc3c2c(=O)[nH]c(=O)n3C)cc1 (centres unmarked)	-0.053
Cc1ccc2c(c1)cc1c(=O)n(CC(=O)NCC(C)c3ccccc3)nc(C)n12 (centres unmarked)	1.68
O=C(CCc1nc(CN2CCN(S(=O)(=O)c3cccs3)CC2)no1)N1CCCC1	-0.899
COc1ccccc1N1CCN(C(=O)c2cccc(C)c2)CC1	-2.32
N#C/C(=C/c1cccnc1)c1nc(-c2ccccc2)cs1	0.385
Cc1ccccc1OC(C)C(=O)Nc1nc2ccccc2s1 (centres unmarked)	2.03
CCOc1ccc(C2C(C(=O)c3ccc4c(c3)OCCO4)=C(O)C(=O)N2CC2CCCO2)cc1 (centres unmarked)	-6.4
COc1ccc(-c2csc(Nc3cccc4ccccc34)n2)cc1	1.96
Cn1cc([N+](=O)[O-])c(C(=O)n2cccn2)n1	-1.29
CCc1ccc(CC(=S)N2CCOCC2)cc1	1.41
CC1(C)CC2=NC3=C(C(=O)CC(C)(C)C3)C(c3cccc(OCC(=O)Nc4ccccc4)c3)C2=C(O)C1 (centres unmarked)	0.983
CCOc1ccc(C(=O)C2=C(O)C(=O)N(CCCN(C)C)C2c2ccc(C)cc2)c(C)c1 (centres unmarked)	-0.178
O=C(CCN1C(=O)C2CC=C(Cl)CC2C1=O)Nc1ccc(Br)cc1 (centres unmarked)	5.18
Cc1ccccc1NC(=O)C(Cc1ccc([N+](=O)[O-])cc1)N1C(=O)c2ccccc2C1=O (centres unmarked)	9.92
COc1ccc(N2C(=O)CC(N3CCN(c4ccccc4F)CC3)C2=O)cc1 (centres unmarked)	-1.96

Compound	% Inhibition @ 10 uM [%]
CC(C)CNC(=O)CSCc1c(Cl)cccc1Cl	-4.03
Nc1c2c(nc3c1CCC3)CCCC2	-4.23
CCOc1cccc(-c2cc(C(=O)Nc3cc(C)on3)c3ccccc3n2)c1	-3.04
CCCNC(=O)CCCn1nc(C)n2c(cc3sccc32)c1=O	-1.58
CN(CCc1ccccn1)Cc1ccc(F)c(Br)c1	3.48
Cc1cccc(Cn2c(CN3CCN(Cc4ccccc4)CC3)nc3c2c(=O)n(C)c(=O)n3C)c1	1.23
COCCNC(=O)c1cccc2c1C(=O)N(C1CCCCC1)C2	4.01
COCCNC(=O)CCCCCNc1nc(S)nc2ccccc12	15.7
CCOc1ccc(-c2[nH]nc3c2C(c2ccccc2F)C(C#N)=C(N)O3)cc1 (centres unmarked)	-0.99
O=C(Nc1nn2c(-c3ccccc3)nnc2s1)c1ccccc1	1.68
NC(=O)c1c(NC(=O)c2ccc(Br)o2)sc2c1CCCCCC2	12.5
COc1ccc(C2CC(=O)NC3=C2C(=O)CC(C)(C)C3)cc1 (centres unmarked)	4.63
O=C(Cn1ncc2c(=O)oc3ccccc3c21)NCc1cccs1	-8.63
CN1CCN(CC(c2ccccc2)c2ccccc2)CC1	-5.65
CCN(CC)c1ccc(NC(=O)c2cc(OC)cc(OC)c2)cc1	-4.15
Cc1[nH]nc2c1C(c1ccc(Br)cc1F)C(C#N)=C(N)O2 (centres unmarked)	0.385
COc1ccccc1OCCCn1c(C)c(C(=O)C(F)(F)F)c2ccccc21	3.63
Cc1ccc(SCC(=O)Nc2nnc(CCS(=O)(=O)c3ccc(Cl)cc3)s2)cc1	1.26
CN(C)c1ncnc2c1cnn2C	-7.06
COc1ccc(-c2nc3s/c(=C\c4ccncc4)c(=O)n3n2)cc1	1.91
CS(=O)(=O)c1nc(S(=O)(=O)c2ccc(Cl)cc2)c(NCCCn2ccnc2)s1	-0.522
NC1=NC(=O)/C(=C/c2cc(Br)c(O)c(Br)c2)S1	-2.87

Compound	% Inhibition @ 10 uM [%]
COc1ccc(Cc2nc3c4cnn(-c5nc6ccccc6s5)c4ncn3n2)cc1OC	-1.32
Cc1c(C(=O)N2CCc3ccccc3C2)sc2nc(-c3ccc(F)cc3)cn12	-0.138
COc1ccc(CN2CCN(Cc3ccccc3C)CC2)cc1	2.28
Cc1c(/C=N/n2cnnc2)c(O)n2c(nc3ccccc32)c1C#N	-1.25
NC(=O)CSc1cn(CC(=O)N2CCCCC2)c2ccccc12	6.79
Cc1cc(S(=O)(=O)Nc2cccnc2)c(C)cc1Cl	-0.183
CCOc1ccc(N2CC(C(=O)Nc3cccc(Cl)c3)CC2=O)cc1 (centres unmarked)	6.65
CCc1c(C)c2ccc3c(c2oc1=O)CN(CCc1ccc(OC)c(OC)c1)CO3	-2.13
CCOc1ccc(-c2nc(C)c(C(C)=O)n2O)cc1	-4.77
COc1cc(/C=C2/SC(=O)N(C(C)C)C2=O)ccc1OCC(=O)Nc1ccc(C)cc1	-5.3
COc1ccc2cc3c(N)nn(C(=O)CN4CCOCC4)c3nc2c1	-1.28
O=C(NC1CON=C1NCCc1c[nH]c2ccccc12)OCc1ccccc1 (centres unmarked)	10.8
O=C1NC(=O)C(=Cc2ccccc2C(F)(F)F)C(=O)N1	-5.6
CC(Oc1ccccc1)C(=O)Nc1ccc2ccccc2c1 (centres unmarked)	0.907
CCN(CC)c1ccc(C(C2=C(O)CC(C)(C)CC2=O)C2C(=O)CC(C)(C)CC2=O)c(O)c1 (centres unmarked)	4.8
CCSCCOC(=O)C1=C(C)NC(=O)CC1c1cccc(Cl)c1Cl (centres unmarked)	-6.14
O=C1c2cccnc2C(O)N1Cc1ccccc1 (centres unmarked)	3.96
COc1ccc(CN2CCN(CC3CC=CCC3)CC2)c(OC)c1OC (centres unmarked)	-5.26
COc1ccc(OCc2cccc(C(=O)Nc3cc(C)on3)c2)cc1	-1.04
CCCNCc1cc2ccccc2o1	-2.36
COc1cc(CN2CCCC(C(=O)N3CCCCCC3)C2)ccc1OCc1ccccc1 (centres unmarked)	0.565
